Source: the supplement of paper PMC4967469
A lower IC50 marks a more sensitive line; a fit beyond the top or the lowest dose is shown as a bound at that dose. The AUC spans the tested range (256-fold, ending at the top dose) of the same fit: 1 means no effect, lower means more sensitive. For part of these data: Any top dose called inferred was calculated from the reported fits.

Key:
Test in all cases: Viability of human cancer cell lines after 72 h of drug (GDSC screen)
JW-7-52-1 = compound: CCC(=O)N1CCN(c2ccc(-n3c(=O)ccc4cnc5ccc(-c6cnc7ccccc7c6)cc5c43)cc2C(F)(F)F)CC1 [JW-7-52-1]; conditions: top dose 1.2 µM; top dose inferred
Description: (§1)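 Human cancer cell lines in 384-well plates, medium with 10% serum, drug for 72 h over a 256-fold dose range (nine 2-fold or five 4-fold steps up to the top dose). Adherent lines were fixed and stained with the nucleic acid dye Syto60, suspension lines read with resazurin; signal relative to control wells, capped at 0 and 100%. One two-parameter sigmoid per drug and line, fitted in a mixed model over all curves with the slope shared within a line.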

Z-LLNle-CHO = compound: CCCC[C@@H](C=O)NC(=O)[C@H](CC(C)C)NC(=O)[C@H](CC(C)C)NC(=O)OCc1ccccc1 [Z-LLNle-CHO]; conditions: top dose 2.56 µM; top dose inferred
Description: as §1

ZG-10 = compound: CN(C)C/C=C/C(=O)Nc1ccc(C(=O)Nc2cccc(Nc3nccc(-c4cccnc4)n3)c2)cc1 [ZG-10]; conditions: top dose 10 µM; top dose inferred
Description: as §1

Tubastatin A = compound: CN1CCc2c(c3ccccc3n2Cc2ccc(C(=O)NO)cc2)C1 [Tubastatin A]; conditions: top dose 20 µM
Description: as §1

Rapamycin = compound: CO[C@H]1C[C@@H]2CC[C@@H](C)[C@@](O)(O2)C(=O)C(=O)N2CCCC[C@H]2C(=O)O[C@H]([C@H](C)C[C@@H]2CC[C@@H](O)[C@H](OC)C2)CC(=O)[C@H](C)/C=C(\C)[C@@H](O)[C@@H](OC)C(=O)[C@H](C)C[C@H](C)/C=C/C=C/C=C/1C [Rapamycin]; conditions: top dose 0.1 µM; top dose inferred
Description: as §1

XL-880 = compound: COc1cc2c(Oc3ccc(NC(=O)C4(C(=O)Nc5ccc(F)cc5)CC4)cc3F)ccnc2cc1OCCCN1CCOCC1 [XL-880]; conditions: top dose 5.12 µM; top dose inferred
Description: as §1

Temozolomide = compound: Cn1nnc2c(C(N)=O)ncn2c1=O [Temozolomide]; conditions: top dose 30 µM
Description: as §1

CI-1040 = compound: O=C(NOCC1CC1)c1ccc(F)c(F)c1Nc1ccc(I)cc1Cl [CI-1040]; conditions: top dose 10 µM; top dose inferred
Description: as §1

IPA-3 = compound: Oc1ccc2ccccc2c1SSc1c(O)ccc2ccccc12 [IPA-3]; conditions: top dose 32 µM; top dose inferred
Description: as §1

Cell Line	AUC (JW-7-52-1)	IC50 (JW-7-52-1)	AUC (Z-LLNle-CHO)	IC50 (Z-LLNle-CHO)	AUC (ZG-10)	IC50 (ZG-10)	AUC (Tubastatin A)	IC50 (Tubastatin A)	AUC (Rapamycin)	IC50 (Rapamycin)	AUC (XL-880)	IC50 (XL-880)	AUC (Temozolomide)	IC50 (Temozolomide)	AUC (CI-1040)	IC50 (CI-1040)	AUC (IPA-3)	IC50 (IPA-3)
CW-2 (large intestine, adherent)	0.974	> 1.2 µM	0.988	> 2.56 µM	0.981	> 10 µM	0.97	> 20 µM	0.964	> 0.1 µM	0.885	> 5.12 µM	0.988	> 30 µM	0.955	> 10 µM	0.988	> 32 µM
WSU-DLCL2 (B-cell lymphoma, suspension)	0.866	0.781 µM	0.874	1.79 µM	0.992	> 10 µM	0.993	> 20 µM	0.985	> 0.1 µM	0.83	2.5 µM	0.992	> 30 µM	0.924	> 10 µM	0.893	26.8 µM
MDST8 (large intestine, adherent)	0.629	0.17 µM	0.947	> 2.56 µM	0.703	2.32 µM	0.983	> 20 µM	0.919	> 0.1 µM	0.677	0.992 µM	0.986	> 30 µM	0.576	1.01 µM	0.903	> 32 µM
LXF-289 (lung adenocarcinoma, adherent)	0.351	0.0293 µM	0.75	0.823 µM	0.726	2.7 µM	0.978	> 20 µM	0.909	> 0.1 µM	0.596	0.586 µM	0.975	> 30 µM	0.818	5.5 µM	0.987	> 32 µM
NB(TU)1-10 (neuroblastoma, adherent)	0.671	0.209 µM	0.95	> 2.56 µM	0.993	> 10 µM	0.944	> 20 µM	0.975	> 0.1 µM	0.4	0.177 µM	0.992	> 30 µM	0.868	7.14 µM	0.826	16 µM
SNU-C2B (large intestine, adherent)	0.645	0.215 µM	0.734	0.939 µM	0.868	> 10 µM	0.948	> 20 µM	0.967	> 0.1 µM	0.813	3.91 µM	0.956	> 30 µM	0.804	6.99 µM	0.963	> 32 µM
Mo-T (hairy cell leukaemia, suspension)	0.982	> 1.2 µM	0.823	1.55 µM	0.845	7.46 µM	0.927	> 20 µM	0.988	> 0.1 µM	0.848	3.93 µM	0.939	> 30 µM	0.775	4.05 µM	0.774	12.8 µM
C2BBe1 (large intestine, adherent)	0.699	0.296 µM	0.812	1.6 µM	0.964	> 10 µM	0.976	> 20 µM	0.786	0.0495 µM	0.831	3.88 µM	0.984	> 30 µM	0.51	0.666 µM	0.804	18.6 µM
DND-41 (T-cell leukaemia, suspension)	0.598	0.135 µM	0.719	0.612 µM	0.625	1.32 µM	0.79	7.78 µM	0.872	0.076 µM	0.683	0.966 µM	0.985	> 30 µM	0.827	5.17 µM	0.627	4.27 µM
PL-21 (acute myeloid leukaemia, suspension)	0.523	0.0874 µM	0.832	2.02 µM	0.712	2.78 µM	0.866	> 20 µM	0.719	0.0293 µM	0.692	1.22 µM	0.961	> 30 µM	0.475	0.528 µM	0.979	> 32 µM
Daudi (Burkitt lymphoma, suspension)	0.413	0.0449 µM	0.709	0.567 µM	0.721	2.39 µM	0.813	9.1 µM	0.226	0.00114 µM	0.427	0.208 µM	0.99	> 30 µM	0.957	> 10 µM	0.693	6.41 µM
VCaP (prostate, adherent)	0.641	0.187 µM	0.852	2.09 µM	0.826	6.39 µM	0.895	> 20 µM	0.948	> 0.1 µM	0.736	1.55 µM	0.986	> 30 µM	0.987	> 10 µM	0.829	20.9 µM
NCI-H226 (lung squamous cell carcinoma, adherent)	0.937	> 1.2 µM	0.857	2.26 µM	0.717	2.66 µM	0.957	> 20 µM	0.983	> 0.1 µM	0.51	0.342 µM	0.986	> 30 µM	0.88	> 10 µM	0.771	12.9 µM
SK-MEL-1 (melanoma, suspension)	0.871	0.88 µM	0.963	> 2.56 µM	0.936	> 10 µM	0.982	> 20 µM	0.978	> 0.1 µM	0.846	3 µM	0.993	> 30 µM	0.516	0.688 µM	0.992	> 32 µM
LB831-BLC (bladder, adherent)	0.634	0.177 µM	0.716	0.661 µM	0.855	8.14 µM	0.978	> 20 µM	0.987	> 0.1 µM	0.658	0.888 µM	0.986	> 30 µM	0.917	> 10 µM	0.856	26.3 µM
SK-N-DZ (neuroblastoma, adherent)	0.623	0.163 µM	0.865	2.21 µM	0.835	6.47 µM	0.987	> 20 µM	0.983	> 0.1 µM	0.718	1.31 µM	0.987	> 30 µM	0.929	> 10 µM	0.758	11 µM
EW-24 (Ewing sarcoma, semi-adherent)	0.874	0.926 µM	0.899	> 2.56 µM	0.715	2.31 µM	0.989	> 20 µM	0.991	> 0.1 µM	0.853	3.28 µM	0.987	> 30 µM	0.968	> 10 µM	0.937	> 32 µM
ES7 (Ewing sarcoma, adherent)	0.881	> 1.2 µM	0.942	> 2.56 µM	0.593	1.13 µM	0.8	9.95 µM	0.981	> 0.1 µM	0.256	0.0625 µM	0.982	> 30 µM	0.879	> 10 µM	0.828	20.5 µM
HCC2157 (breast, suspension)	0.665	0.221 µM	0.885	> 2.56 µM	0.618	1.35 µM	0.955	> 20 µM	0.89	> 0.1 µM	0.987	> 5.12 µM	0.96	> 30 µM	0.931	> 10 µM	0.934	> 32 µM
GT3TKB (stomach, adherent)	0.576	0.118 µM	0.773	0.878 µM	0.482	0.563 µM	0.984	> 20 µM	0.976	> 0.1 µM	0.819	2.47 µM	0.981	> 30 µM	0.885	8.71 µM	0.781	11.7 µM
Becker (glioma, adherent)	0.447	0.0528 µM	0.862	> 2.56 µM	0.747	3.54 µM	0.983	> 20 µM	0.653	0.0176 µM	0.676	1.06 µM	0.967	> 30 µM	0.903	> 10 µM	0.984	> 32 µM
OCI-AML5 (acute myeloid leukaemia, suspension)	0.726	0.308 µM	0.821	1.32 µM	0.63	1.38 µM	0.783	7.65 µM	0.935	> 0.1 µM	0.253	0.0676 µM	0.978	> 30 µM	0.745	2.91 µM	0.906	> 32 µM
AMO-1 (haematopoietic neoplasm, suspension)	0.625	0.157 µM	0.69	0.499 µM	0.65	1.52 µM	0.899	19.1 µM	0.904	> 0.1 µM	0.66	0.828 µM	0.981	> 30 µM	0.91	> 10 µM	0.758	9.7 µM
TE-1 (oesophagus, adherent)	0.658	0.233 µM	0.757	1.1 µM	0.738	3.65 µM	0.981	> 20 µM	0.831	0.0882 µM	0.801	3.31 µM	0.98	> 30 µM	0.883	> 10 µM	0.982	> 32 µM
OCI-LY-19 (B-cell lymphoma, suspension)	0.52	0.0846 µM	0.78	0.972 µM	0.696	2.11 µM	0.826	10.8 µM	0.868	0.0791 µM	0.415	0.191 µM	0.986	> 30 µM	0.717	2.42 µM	0.767	11 µM
NCI-H747 (large intestine, adherent)	0.371	0.0305 µM	0.745	0.963 µM	0.766	4.49 µM	0.91	> 20 µM	0.837	0.0887 µM	0.72	1.56 µM	0.98	> 30 µM	0.769	4.61 µM	0.761	13.8 µM
NCI-H1436 (small cell lung carcinoma, suspension)	0.962	> 1.2 µM	0.974	> 2.56 µM	0.574	1.03 µM	0.972	> 20 µM	0.959	> 0.1 µM	0.681	1.11 µM	0.984	> 30 µM	0.974	> 10 µM	0.954	> 32 µM
SK-LMS-1 (soft tissue, adherent)	0.252	0.0152 µM	0.775	0.963 µM	0.638	1.47 µM	0.848	13.8 µM	0.349	0.00244 µM	0.396	0.168 µM	0.926	> 30 µM	0.779	3.86 µM	0.71	7.55 µM
